PubChem BioAssay AID894 (National Center for Advancing Translational Sciences (NCATS), 2007)
“And” between values parts separate entries of the source, which are not always exact repeats. Identical values can stand only once. In all, about 150,000 compounds went through this assay and about 6,500 (4.3%) were called active. The shares of active, inactive and inconclusive entries below differ from those in the screen. Calls come from the whole dose curve; as a rule, active = well fitted inhibition curve with a large enough effect (not every such curve was filed as active); inconclusive = small, poorly fitted or top-dose-only effect, or another doubt; inactive = no such curve, though single readings can be large or run the other way. Potencies of inconclusive entries are left out as doubtful fits.

target: 15-hydroxyprostaglandin dehydrogenase [NAD(+)] (Homo sapiens) (UniProt P15428); assay: qHTS Assay for Inhibitors of HPGD (15-Hydroxyprostaglandin Dehydrogenase); conditions: purified HPGD, NADH fluorescence kinetic, PGE2 substrate; activity change, negative = inhibition: hits give low values
Chain of UniProt P15428 (P15428 whole entry, looked up): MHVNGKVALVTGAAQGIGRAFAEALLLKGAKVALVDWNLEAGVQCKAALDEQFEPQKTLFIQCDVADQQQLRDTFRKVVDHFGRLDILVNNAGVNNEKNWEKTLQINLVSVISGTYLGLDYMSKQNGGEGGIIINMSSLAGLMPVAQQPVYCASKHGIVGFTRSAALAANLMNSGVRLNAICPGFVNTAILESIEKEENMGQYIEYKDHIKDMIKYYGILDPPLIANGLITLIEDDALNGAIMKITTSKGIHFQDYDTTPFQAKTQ
Procedure, shortened: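 NADH formation kinetics: reaction with 30 uM PGE2 and 1 mM NAD+ (final), 20 nM enzyme, Tris-HCl pH 8 with Tween 20, after 15 min compound preincubation at room temperature. Fluorescence change, last versus first of five reads.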
% is set by controls: 0 for no effect and ±100 for the full control effect; potency is the fitted concentration of half-maximal effect; tags give direction and shape of the fitted curve.

SMILES | activity change, negative = inhibition | Potency
COc1ccccc1/C=c1\sc2nc(-c3ccco3)nn2c1=O | inactive: -22.1% | 
COc1ccccc1CCNC(=O)C1CCCO1 (stereo unspecified) |  | active: 17.8 µM
COc1ccc(-c2nc(C#N)c(N3CCN(c4cccc(Cl)c4)CC3)o2)cc1OC |  | inconclusive [inhibitor, partial curve]
N#Cc1nc(-c2ccccc2Cl)oc1N1CCCCC1 |  | inconclusive [inhibitor, partial curve]
CCN(CC)CCN1C(=O)C(O)=C(C(=O)c2cccs2)C1c1ccc(C)o1 (stereo unspecified) | inactive: -8.9% | 
COc1cc(/C=C/C(=O)c2ccc(NS(=O)(=O)c3ccc(C)cc3)cc2)ccc1OC(F)F |  | active: 15.8 µM
O=C(NCc1ccccc1)C(c1ccncc1)N(C(=O)c1csnn1)C1CC1 (stereo unspecified) | inactive: 0.982% | 
Cc1cc(C)nc(N(C#N)CN2C(=O)c3ccccc3C2=O)n1 |  | inconclusive [inhibitor, partial curve]
N#CC1=C(SCC(=O)c2ccc(Cl)cc2)NC2=C(C(=O)CCC2)C1c1ccco1 (stereo unspecified) | inactive: -20.2% | 
Nc1c(-c2ccccc2)n[nH]c1-c1ccccc1 |  | inconclusive [inhibitor, partial curve]
CCOc1cc(C2NN=C(c3ccc(C)cc3)S2)ccc1O (stereo unspecified) |  | inconclusive [inhibitor, single point]
Cn1cc(Cl)nc1C(O)c1ccccc1 (stereo unspecified) | inactive: 3.62% | 
O=C(O)c1ccccc1NS(=O)(=O)c1ccccc1F | inactive: -11.9% | 
O=C(CSc1nnc(COc2ccc(Cl)cc2)n1Cc1ccco1)c1ccccc1F | inactive: -2.49% | 
CNc1nc(SCc2ccc(C)cc2)nc2c1CCCC2 |  | inconclusive [inhibitor, partial curve]
COc1cc2nc(N(C)CCCNC(=O)[C@@H]3CCCO3)nc(N)c2cc1OC |  | inconclusive [inhibitor, partial curve]
O=C(Nc1cccc(-c2cnc3ccccc3n2)c1)c1cccc(NC(=O)c2ccco2)c1 | inactive: -16% | 
CCCCCCCN=CC1=C(O)CC(c2ccccc2)CC1=O (stereo unspecified) | inactive: -3.44% | 
O=C(Cc1cccs1)NCc1cccs1 |  | active: 15.8 µM
Fc1cc(F)c2nc(N3CCOCC3)sc2c1 | inactive: -12.5% | 
O=C(COc1ccc(Cl)cc1Cl)NCc1ccncc1 |  | active: 25.1 µM
O=C(O)c1cc(-c2cccc(Cl)c2)nc2nc(N3CCCCC3)sc12 |  | inconclusive [inhibitor, partial curve]
O=C(NCC1CCCO1)c1nn2cccnc2c1Cl (stereo unspecified) |  | active: 25.1 µM
COc1ccccc1-n1nnnc1SCC(=O)NC1CCCC1 | inactive: -19.4% | 
COc1cccc(CN=CC2=C(O)CC(C)(C)CC2=O)c1OC |  | inconclusive [inhibitor, single point]
CCn1c(=O)cc(OCC(=O)NCCC(C)C)c2ccccc21 |  | inconclusive [inhibitor, single point]

SMILES | activity change, negative = inhibition | Potency
Cc1ccc(N(CC(=O)NCC2CCCO2)S(C)(=O)=O)cc1Cl (stereo unspecified) | inactive: -12.6% | 
CCC(=O)Oc1oc(-c2ccccc2)nc1C=Nc1ccccc1OC |  | inconclusive [inhibitor, single point]
O=C(O)CSc1nnc(Cn2nnc3ccccc32)n1CCc1ccccc1 |  | inconclusive [inhibitor, single point]
COc1cccc(Nc2nnc(SCC(=O)N3CC(C)OC(C)C3)s2)c1 (stereo unspecified) |  | inconclusive [inhibitor, partial curve]
CCc1cc(=O)oc2c(CN3CCCC3)c(O)c(Cl)cc12 |  | inconclusive [inhibitor, partial curve]
O=S(=O)(NCc1ccccc1)c1ccc(S(=O)(=O)N(Cc2ccccn2)Cc2ccco2)cc1 | inactive: -7.2% | 
O=C(O)CCc1ccc(-c2cccs2)o1 |  | active: 22.4 µM
COc1ccc(N2C(=O)C(Cl)=C(Nc3ccccc3OC)C2=O)cc1 | inactive: -26.3% | 
N#Cc1c(SCc2ccc(Cl)cc2)sc(C(=O)c2ccccc2)c1N |  | inconclusive [inhibitor, single point]
CCOC(=O)c1oc2cccc(OCC(O)CNC(C)C)c2c1C (stereo unspecified) |  | inconclusive [inhibitor, partial curve]
CC(C)(C)OC(=O)C1C(=O)CC(C)(O)C(C(=O)OC(C)(C)C)C1c1cccnc1 (stereo unspecified) | inactive: -5.46% | 
Cc1ccc(-n2c(N)c(C(=O)N3CCOCC3)sc2=S)c(C)c1 |  | active: 7.94 µM
Cc1ccc(S(=O)(=O)N(Cc2cc3cccc(C)c3[nH]c2=O)c2ccccc2)cc1 |  | inconclusive [inhibitor, partial curve]
CCOC(=O)c1c(Nc2ccccc2N)cc(C)nc1C | inactive: -5.73% | 
Cc1ccc(OCC(=O)N2CCCCCC2)c(C)c1 | inactive: -18.5% | 
COc1cccc(Cn2c(=S)[nH]c3ccc(N4CCOCC4)cc3c2=O)c1 |  | inconclusive [inhibitor, partial curve]
Cc1ccc(S(=O)(=O)Cc2ccc(C(=O)N3CCCC3)o2)cc1 | inactive: 2.42% | 
CCC(C)NC(=O)CSc1nc2ccccc2c(=O)n1Cc1ccc(OC)cc1 (stereo unspecified) |  | inconclusive [inhibitor, single point]
Cc1ccc(NC(=O)c2ccc(-c3nn(C)c(=O)c4ccccc34)cc2)cc1 |  | active: 17.8 µM
S=C(S)OC1CC2CC1C1CCCC21 (stereo unspecified) | inconclusive: -33.8% [inhibitor] | 
Cc1ccc(CNC(=O)C2(CC(C)C)C=CCN2C(=O)c2ccccc2)o1 (stereo unspecified) | inactive: -20.9% | 
CCN(CC)C(=O)c1ccc2c(c1[N+](=O)[O-])C(=O)c1ccccc1C2=O |  | inconclusive [inhibitor, full curve]
Cn1c(-c2ccccc2)cc(=O)c2ccccc21 |  | active: 25.1 µM
Cc1nc2oc3c(NCc4ccccn4)ncnc3c2c2c1COC(C)(C)C2 |  | inconclusive [inhibitor, partial curve]
Cc1cccc2sc(NNC(=O)c3ccc4c(c3)OCCO4)nc12 |  | active: 31.6 µM
C/C(=C1/SC(=S)N(CCC(=O)O)C1=O)c1ccc(O)cc1 |  | active: 17.8 µM

SMILES | activity change, negative = inhibition | Potency
COc1cc(C(=O)Oc2cccc(C=O)c2)cc(OC)c1OC | inactive: -0.638% | 
COc1ccc2oc(=O)c(C(=O)NCc3ccc4c(c3)OCO4)cc2c1 |  | inconclusive [inhibitor, single point]
Cc1cc(C)nc(SCc2cc(=O)c(OC(=O)c3ccc(S(=O)(=O)N4CCCC4)cc3)co2)n1 | inactive: -22% | 
CCN(Cc1cc(=O)n2ccsc2n1)c1cccc2ccccc12 |  | inconclusive [inhibitor, partial curve]
COc1ccc2c(c1)C(=O)N(c1ccccc1)C(=O)C2 |  | inconclusive [inhibitor, partial curve]
CCc1c(C(=O)N2CCOCC2)csc1C |  | inconclusive [inhibitor, single point]
Cc1occc1C(=O)Nc1ccc2c(c1)OCCO2 |  | active: 15.8 µM
COCCNC(=O)/C(C#N)=C/c1cccc(NC(=O)c2ccccc2Cl)c1 |  | inconclusive [inhibitor, partial curve]
CS(=O)(=O)c1nc(-c2ccccc2)c(-c2ccccc2)[nH]1 |  | inconclusive [inhibitor, partial curve]
O=C(CC1SC(=O)N(c2ccccc2)C1=O)Nc1ccccc1 (stereo unspecified) |  | inconclusive [inhibitor, single point]
COCc1nnc(SCC(=O)Nc2cccc(Cl)c2C)n1-c1ccccc1 | inactive: -8.79% | 
O=C(Nc1nc2ccccc2s1)c1cc(-c2ccccc2)nn1-c1ccccc1 |  | inconclusive [inhibitor, partial curve]
Cc1c(C(=O)O)oc2ccc(S(=O)(=O)N3CCC(C)CC3)cc12 |  | active: 11.2 µM
CN1CCc2cccc3c2[C@@H]1Cc1ccc(O)c(O)c1-3 |  | active: 2.51 µM and active: 8.91 µM
CCOCCCNc1ncnc2c1[nH]c1ccccc12 |  | inconclusive [inhibitor, single point]
CCOc1ccc2nc(NCCNS(=O)(=O)c3ccccc3)c(C#N)cc2c1 |  | inconclusive [inhibitor, full curve, poor fit]
Cc1nc(-c2cnn(-c3ccccc3)c2)c2cc(C)oc2n1 |  | inconclusive [inhibitor, partial curve]
Cc1c(/C(O)=C2/C(=O)C(=O)N(Cc3cccnc3)C2c2cccs2)cnn1-c1ccccc1 (stereo unspecified) |  | active: 20 µM
Cc1ccc(C(=O)N2NC(c3ccc(F)cc3)C3C(=O)N(c4ccc(C)c(C)c4)C(=O)C32)cc1 (stereo unspecified) | inconclusive: -33.2% [inhibitor] | 
CC1CC2(CC(C)(C(=O)CSc3n[nH]c(-c4ccccc4Cl)n3)OC2=O)C(=O)O1 (stereo unspecified) |  | inconclusive [inhibitor, single point]
CCOC(=O)c1c(-c2ccccc2Cl)csc1NC(=O)c1cc(S(=O)(=O)N2CCOCC2)ccc1C |  | inconclusive [inhibitor, partial curve]
O=C(O)c1cc(-c2ccco2)nc2ccccc12 |  | inconclusive [inhibitor, partial curve]
Cc1cccc(NC(=O)CSc2ccc(-c3ccco3)nn2)c1C | inactive: -16.5% | 
O=C(Nc1ccc(N2CCOCC2)c(Cl)c1)c1ccc(Br)o1 |  | active: 25.1 µM
